According to PubChem BioAssay AID1347073 (National Center for Advancing Translational Sciences (NCATS), 2019):
In all, about 45,000 compounds went through this assay and about 200 (0.44%) were called active. Another 7% or so got no clear call; they are omitted. Calls follow the shape of the dose curve; as a rule, active = well fitted activation curve with a large enough effect; inconclusive = small, poorly fitted or top-dose-only effect; inactive = no such curve, though single readings can be large or run the other way. This is one part of the list.

experiment: qHTS of TDP-43 Inhibitors: NCGC Sytravon Library Screen; settings: yeast TDP-43 toxicity rescue, BacTiter-Glo growth, 24 h; series mostly up to 46.1 µM; growth rescue (activation): at the top concentration; also: 0% is about no effect; nearly all actives have a fitted effect of over 55% in size
How it was run: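 TDP-43-expressing yeast, pregrown in raffinose, seeded at OD600 0.02 in galactose medium with compound for 24 hr at 30 deg C. Growth read by BacTiter-Glo luminescence, so rescue of toxicity appears as activation.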

SMILES | growth rescue (activation)
Cc1ccc2nc3c(cc(C(=O)NCCc4ccccc4)c(=N)n3CC3CCCO3)c(=O)n2c1 (centres undefined) | inactive: 11.2%
COCCCN1C(=O)C(O)=C(C(=O)c2ccco2)C1c1ccc(Br)cc1 (centres undefined) | inactive: 4.67%
COc1ccc(C(=O)N/N=C(\C)CC(=O)Nc2ccc3c(c2)OCCO3)c(OC)c1 | inactive: 2.58%
COc1cc(/C=N/NC(=O)c2c(-c3ccccc3)noc2C)cc(OC)c1OC | inactive: 0.433%
O=c1c2cc(NC(=S)NC3CCN(Cc4ccccc4)CC3)ccc2nc2n1CCCCC2 | inactive: 6.01%
Cc1cc(C(=O)N/N=C/c2ccc(-c3cccc(Cl)c3Cl)o2)n[nH]1 | inactive: 7.78%
CC1CC(C)(C)NC(=O)O1 (centres undefined) | inactive: -20.3%
CC1CCN(C(=S)Nc2cccc(S(=O)(=O)N(C)C)c2)CC1 | inactive: 7.53%
CN(C(=O)COC(=O)c1cnc(Cl)c(Cl)c1)C1CCS(=O)(=O)C1 (centres undefined) | inactive: -6.86%
COc1ccc(-c2cc3nc4n(c(=O)c3s2)CCCCC4)cc1 | inactive: 16.1%
CCC(C)c1ccc(NC(=O)N2CCN(C(=O)C3CCCO3)CC2)cc1 (centres undefined) | inactive: 15.1%
Cc1ccc(S(=O)(=O)N(CC(=O)N2CCOCC2)c2ccccc2F)cc1 | inactive: 7.11%
O=C(N/N=C/c1ccc(Br)s1)c1ccncc1 | inactive: 13.2%
Cc1ccc2[nH]c(C(=O)O)c(NC(=O)[C@@H]3C[C@@H]3c3ccccc3)c2c1 | inactive: 7.46%
CC(C)CN1CCNC(=O)C1CC(=O)NCCc1ccc(C(F)(F)F)cc1 (centres undefined) | inactive: -0.0815%
Cc1ccc(N2NC(=O)/C(=C/C=C/c3ccco3)C2=O)cc1C | inactive: 2.5%
CCOCC(=O)Nc1ccc(S(=O)(=O)NCC2CCCO2)cc1 (centres undefined) | inactive: 9.51%
O=C(COC(=O)C1CC2C=CC1C2)Nc1ccc([N+](=O)[O-])cc1 (centres undefined) | inactive: -6.89%
CC(C)(C)c1ccc(S(=O)(=O)NC(=O)C2(C)CCN2C(=O)Cc2cccs2)cc1 (centres undefined) | inactive: 3.33%
Cc1cc2ccccn2c1C(=O)c1cccc(S(=O)(=O)N2CCOCC2)c1 | inactive: 19%
COc1ccc(N2CCN(C(=O)COc3ccc4ccccc4c3)CC2)cc1 | inactive: 19.4%
O=C(NC1CC1)c1ccc2snnc2c1 | inactive: 5.19%
N#CC1=C(N)N(c2ccc(Cl)c(Cl)c2)C(=O)C1 | inactive: 10.8%
COc1ccc(OC)c(S(=O)(=O)NC(=O)C2(C)CCN2C(=O)CC2CCCC2)c1 (centres undefined) | inactive: -23%
OC1CCN(Cc2cn(Cc3ccccc3)nc2-c2cc3ccccc3o2)CC1 | inactive: 3.5%
COc1cc(-c2cc(C(=O)Nc3ccc(C)c(S(=O)(=O)N4CCOCC4)c3)c3ccccc3n2)cc(OC)c1OC | inactive: 9.18%
O=C(COC(=O)c1cccnc1Nc1ccccc1F)NC1CC1 | inactive: 3.37%

SMILES | growth rescue (activation)
COc1ccccc1C(=O)CN1C(=O)NC2(CCCCCC2)C1=O | inactive: 8.8%
O=C(O)CC12CC3CC(C1)CC(n1ncc(NCc4ccccc4)c(Cl)c1=O)(C3)C2 | inactive: 31.2%
CCN(C(=O)/C=C/c1ccc2c(c1)OCO2)c1ccccc1 | inactive: 16%
COc1ccc(S(=O)(=O)N2CCN(CC(=O)N3c4ccccc4CC3C)CC2)cc1OC (centres undefined) | inactive: 26.7%
Cc1cc(NC(=O)CCCN2C(=O)/C(=C/c3ccccc3Cl)SC2=S)no1 | inactive: 11.4%
NC(=O)[C@@H]1CCCN1C(=O)c1ccc2oc(CCc3ccccc3)nc2c1 | inactive: -0.792%
Cc1cc(C)c2c(=O)[nH]c(SCC(=O)c3ccc(F)c(C)c3)nc2n1 | inactive: 4.36%
CN(C(=O)COC(=O)c1ccc(Cl)cc1N)C1CCS(=O)(=O)C1 (centres undefined) | inactive: 9.13%
Cc1[nH]c(=O)c(C#N)c(C)c1CCC(=O)Nc1cc(S(C)(=O)=O)ccc1Cl | inactive: -4.53%
CC(=O)c1ccccc1NC(=O)COC(=O)c1ccccc1NC(=O)c1ccccc1 | inactive: 12.4%
CC(=O)c1ccc(S(=O)(=O)Nc2ccc(N3CCOCC3)cc2)cc1 | inactive: 14.4%
N#C/C(=C\c1ccc(-c2ccccc2C(=O)O)o1)c1nc2ccccc2[nH]1 | inactive: 7.21%
CC1CCCN(Cc2csc(N)n2)C1 (centres undefined) | inactive: 8.71%
COc1ccc(/C=C(\NC(=O)c2ccc(C)cc2)C(=O)NCCCN2CCOCC2)cc1OC | inactive: 9.53%
COc1cccc(NC(=O)N2CCCC2C(=O)NCc2ccco2)c1 (centres undefined) | inactive: -6.41%
CCC(CC)NC(=O)CN1CCN(S(=O)(=O)c2ccc(Br)s2)CC1 | inactive: 9.95%
O=C(NCc1ccccc1Cl)C1(S(=O)(=O)c2ccc(Cl)cc2)CC1 | inactive: 12.2%
CCOC(=O)c1c(NC(C)=O)c2c3c(sc2n1Cc1nc(-c2ccc(Cl)cc2)oc1C)CCCC3 | inactive: -3.83%
c1ccc2c(-c3nnc4n3CCCCC4)cc(-c3ccncc3)nc2c1 | inactive: 17.6%
CCOC(=O)Cc1csc(N/C(=N/S(=O)(=O)c2ccc(F)cc2F)c2ccccc2)n1 | inactive: -5.05%
Nc1nc(-c2cc(O)ccc2[N+](=O)[O-])cc(-c2ccccc2)c1[N+](=O)[O-] | inactive: 1.61%
CCOc1ccc(C(=O)Nc2c(C(=O)c3ccccc3)oc3ccccc23)cc1 | inactive: 1.8%
CCOC(=O)c1c(C)[nH]c(C(=O)N2CCN(C(=O)OCC)CC2)c1C | inactive: -2.08%
CC(OC(=O)CNS(=O)(=O)/C=C/c1ccccc1)C(=O)Nc1ccc(S(=O)(=O)N2CCCC2)cc1 (centres undefined) | inactive: 12.5%
COc1ccc(S(=O)(=O)NCc2cccnc2)cc1NC(=O)c1ccc(Cl)cc1 | inactive: 3.21%
O=C(COC(=O)C1=Cc2ccccc2OC1)NCc1ccc(F)cc1 | inactive: 9.75%
Cc1cccc(C)c1NC(=O)C(=O)c1cn(C)c2ccccc12 | inactive: 16.8%
